Data from patent US12421317B2, “Polynucleotides encoding anti-glucagon-like peptide 1 receptor (GLP1R) antagonist antibodies” (Regeneron Pharmaceuticals, Inc., priority 2020, dated 2025).

Experiments:
[1] = target: T1, hdesA-GLP1_GLP1R-MMH (in-line fusion protein of human desA-GLP1 and GLP1R-MMH) (Homo sapiens, UniProt P43220); test: SPR (Biacore 4000) binding of captured GLP1R mAbs to hdesA-GLP1_GLP1R-MMH
T1 construct: an in-line fusion protein of human desA-GLP1 and GLP1R-MMH (hdesA-GLP1_GLP1R-MMH)
Method: (§1) The equilibrium dissociation constant (KD) for GLP1R binding to selected GLP1R monoclonal antibodies (mAbs) was determined using a real-time surface plasmon resonance biosensor using a Biacore 4000 instrument. All binding studies were performed in 10 mM HEPES, 150 mM NaCl, 3 mM EDTA, and 0.05% v/v Surfactant Tween-20, pH 7.4 (HBS-ET) running buffer at 25° C. and 37° C. The Biacore CM5 sensor chip surface was first derivatized by amine coupling with human Fc specific mouse mAb to capture different GLP1R mAbs. Different concentrations (100, 25, and 6.25 nM) of the N-terminal region of human GLP1R-MMH (hGLP1R-MMH; SEQ ID NO: 59), human GLP1R expressed with mouse IgG2a Fc (hGLP1R-mFc; SEQ ID NO: 63), an in-line fusion protein of human desA-GLP1 and GLP1R-MMH (hdesA-GLP1_GLP1R-MMH; SEQ ID NO: 62), Macaca fascicularis GLP1R-MMH (mfGLP1R-MMH; SEQ ID NO: 60) or 100 nM mouse GLP1R-MMH (mGLP1R-MMH; SEQ ID NO: 61) prepared in HBS-ET running buffer were injected over the GLP1R mAb captured surface for 150 sec at a flow rate of 30 μL/min and their dissociation in HBS-ET running buffer was monitored for 10 minutes. At the end of each cycle, the GLP1R mAb capture surface was regenerated using a 12 sec injection of 20 mM phosphoric acid.
(§2) The association rate (ka) and dissociation rate (Kd) were determined by fitting the real-time binding sensorgrams to a 1:1 binding model with mass transport limitation using Scrubber 2.0 c curve-fitting software. Binding dissociation equilibrium constant (KD) and dissociative half-life (t½) were calculated from the kinetic rates as: […]

GLP1R humanized mice = test: Exendin-4 induced hypoglycemia in GLP1R humanized mice (Example 5); format: in vivo; conditions: for Blood glucose levels / Percent differences in blood glucose levels from Group 1: Exendin-4 challenge, antibody 25 mg/kg s.c. on Day 0, mean
Method: For the study, 35 mice were randomly divided into one group of fourteen mice and three groups of seven mice. On Day 0, the group of fourteen animals (later divided into Groups 1 and 2) were administered subcutaneously (s.c.) with a mIgG2 isotype control antibody (referred to as Isotype control, dose of 25 mg/kg), whereas the other three groups (n=7/group) were each administered s.c. (dose of 25 mg/kg) with mAb36986 (Group 3), mAb37639 (Group 4), or mAb37645 (Group 5). The next day (Day 1), the isotype control administered fourteen animals were randomly divided into two groups (Group 1 and 2) of seven mice each. At 0 minute on Day 1, animals in Group 1 were administered intraperitoneally (i.p.) with saline, whereas animals in Group 2 were administered i.p. with Exendin-4 (dose of 0.01 mg/kg). At the same time point, animals in Groups 3, 4, and 5 were administered i.p. with Exendin-4 (dose of 0.01 mg/kg). For all animals, blood glucose levels were measured with a handheld glucometer immediately before saline or Exendin-4 administration, and 15, 30, 60, and 120 minutes post administration. All animals remained in their assigned groups until the study completion on Day 67. The Exendin-4 challenge performed on Day 1 was repeated on Days 8, 22, 46, and 67. Mean±SEM of percent differences in blood glucose levels from Group 1 at each time point was calculated for each group and shown in Table 16. Statistical analyses were performed by two-way ANOVA followed by Bonferroni post-hoc tests, comparing Groups 2, 3, 4, and 5 to Group 1.

[2] = target: T2, hGLP1R-MMH (N-terminal region of human GLP1R-MMH) (Homo sapiens, UniProt P43220); test: SPR (Biacore 4000) binding of captured GLP1R mAbs to hGLP1R-MMH
T2 construct: the N-terminal region of human GLP1R-MMH (hGLP1R-MMH)
Method: as §1, §2

[3] = target: T3, mGLP1R-MMH (mouse GLP1R-MMH) (Mus musculus, UniProt O35659); test: SPR (Biacore 4000) binding of captured GLP1R mAbs to mGLP1R-MMH
T3 construct: 100 nM mouse GLP1R-MMH (mGLP1R-MMH)
Method: as §1, §2

[4] = target: T4, hGLP1R-mFc (human GLP1R expressed with mouse IgG2a Fc) (Homo sapiens, UniProt P43220); test: SPR (Biacore 4000) binding of captured GLP1R mAbs to hGLP1R-mFc
T4 construct: human GLP1R expressed with mouse IgG2a Fc (hGLP1R-mFc)
Method: as §1, §2

T4 sequence (P43220 with tags, fused parts or gaps): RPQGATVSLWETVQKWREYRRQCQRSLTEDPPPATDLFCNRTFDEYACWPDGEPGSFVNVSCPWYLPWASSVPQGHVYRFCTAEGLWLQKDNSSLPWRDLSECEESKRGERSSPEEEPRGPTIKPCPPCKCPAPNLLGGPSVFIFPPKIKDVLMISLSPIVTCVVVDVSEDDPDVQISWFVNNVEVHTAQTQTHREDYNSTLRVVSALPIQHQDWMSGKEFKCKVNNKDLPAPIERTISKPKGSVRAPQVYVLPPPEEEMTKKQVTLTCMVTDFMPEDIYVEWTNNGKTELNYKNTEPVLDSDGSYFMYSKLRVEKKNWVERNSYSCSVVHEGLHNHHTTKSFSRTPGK
T2 sequence (P43220 with tags, fused parts or gaps): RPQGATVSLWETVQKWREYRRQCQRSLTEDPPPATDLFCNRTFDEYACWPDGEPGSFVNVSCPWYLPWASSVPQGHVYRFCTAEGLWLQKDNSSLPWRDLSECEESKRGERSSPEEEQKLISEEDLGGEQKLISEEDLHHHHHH
T3 sequence (O35659 with tags, fused parts or gaps): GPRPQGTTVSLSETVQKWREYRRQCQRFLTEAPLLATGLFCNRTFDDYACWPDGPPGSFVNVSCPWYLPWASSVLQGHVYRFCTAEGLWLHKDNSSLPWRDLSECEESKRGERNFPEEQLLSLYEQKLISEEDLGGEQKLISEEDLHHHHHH
T1 sequence (P43220 with tags, fused parts or gaps): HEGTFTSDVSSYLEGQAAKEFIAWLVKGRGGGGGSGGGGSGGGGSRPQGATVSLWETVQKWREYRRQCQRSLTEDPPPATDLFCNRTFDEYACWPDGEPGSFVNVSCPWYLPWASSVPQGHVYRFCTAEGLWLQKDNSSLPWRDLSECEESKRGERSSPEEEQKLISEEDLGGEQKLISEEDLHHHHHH

B1: mAb36986: fully human anti-GLP1R antagonist antibody; HCVR/LCVR SEQ ID NOs: 2/10; heavy/light chain 18/20 (antibody)
heavy: QVQLVQSGTEVKKPGASVKVSCMASGYTFTTYGISWVRQAPGQGLEWMGWISAYNGNTKYAQRLQGRVTMTTDTSTTTAYMGLRGLRSDDTAVYFCARVTLSGRFDYWGQGTLVTVSPASTKGPSVFPLAPCSRSTSESTAALGCLVKDYFPEPVTVSWNSGALTSGVHTFPAVLQSSGLYSLSSVVTVPSSSLGTKTYTCNVDHKPSNTKVDKRV[human IgG4 Fc with S228P (EU numbers) not printed]
light: DIQMTQSPSSLSASVGDRVTITCQASQDISDYLNWYQQKPGKAPKLLIYDASNLETGVPSRFSGSGSGTDFTFTIRSLQPEDIATYYCQQYDNLPYTFGQGTKLEIKRTVAAPSVFIFPPSDEQLKSGTASVVCLLNNFYPREAKVQWKVDNALQSGNSQESVTEQDSKDSTYSLSSTLTLSKADYEKHKVYACEVTHQGLSSPVTKSFNRGEC
notes: fully human anti-GLP1R antagonist antibody; heavy/light chain 18/20
In the case of B1, the ka ([1]; 25° C.) is reported as 30400 M⁻¹ s⁻¹, the kd ([1]; 25° C.) is reported as 0.000108 s⁻¹ and the ka ([1]; 37° C.) is reported as 16300 M⁻¹ s⁻¹. For the same molecule, the kd ([1]; 37° C.) was 0.000987 s⁻¹, the “glucose normalizing effects during Exendin-4 challenges” value (GLP1R humanized mice; 25 mg/kg s.c. on Day 0, challenges on Days 1, 8, 22, 46, 67) was “glucose levels similar to the level measured from Group 1 at every time point on each day when Exendin-4 challenge was performed with exception of the last day (Day 67)” and the Blood glucose levels (GLP1R humanized mice; Day 1, 0 min) was 214 mg/dL. The “Percent differences in blood glucose levels from Group 1” value (from here on “Percent differences”) (GLP1R humanized mice; Day 1, 0 min) was 11%, the Blood glucose levels (GLP1R humanized mice; Day 1, 15 min) was 248 mg/dL and the “Percent differences” value (GLP1R humanized mice; Day 1, 15 min) was −3%. The Blood glucose levels (GLP1R humanized mice; Day 1, 30 min) was 252 mg/dL, the “Percent differences” value (GLP1R humanized mice; Day 1, 30 min) was −1% and the Blood glucose levels (GLP1R humanized mice; Day 1, 60 min) was 225 mg/dL. For the same molecule, the “Percent differences” value (GLP1R humanized mice; Day 1, 60 min) was −4%, the Blood glucose levels (GLP1R humanized mice; Day 1, 120 min) was 218 mg/dL and the “Percent differences” value (GLP1R humanized mice; Day 1, 120 min) was −2%. The Blood glucose levels (GLP1R humanized mice; Day 8, 0 min) was 196 mg/dL, the “Percent differences” value (GLP1R humanized mice; Day 8, 0 min) was −8% and the Blood glucose levels (GLP1R humanized mice; Day 8, 15 min) was 238 mg/dL. For the same molecule, the “Percent differences” value (GLP1R humanized mice; Day 8, 15 min) was −8%, the Blood glucose levels (GLP1R humanized mice; Day 8, 30 min) was 245 mg/dL and the “Percent differences” value (GLP1R humanized mice; Day 8, 30 min) was 0%. For the same molecule, the Blood glucose levels (GLP1R humanized mice; Day 8, 60 min) was 242 mg/dL, the “Percent differences” value (GLP1R humanized mice; Day 8, 60 min) was 0% and the Blood glucose levels (GLP1R humanized mice; Day 8, 120 min) was 199 mg/dL. For the same molecule, the “Percent differences” value (GLP1R humanized mice; Day 8, 120 min) was −5%, the Blood glucose levels (GLP1R humanized mice; Day 22, 0 min) was 207 mg/dL and the “Percent differences” value (GLP1R humanized mice; Day 22, 0 min) was −1%. For the same molecule, the Blood glucose levels (GLP1R humanized mice; Day 22, 15 min) was 251 mg/dL, the “Percent differences” value (GLP1R humanized mice; Day 22, 15 min) was −6% and the Blood glucose levels (GLP1R humanized mice; Day 22, 30 min) was 232 mg/dL. The “Percent differences” value (GLP1R humanized mice; Day 22, 30 min) was −8%, the Blood glucose levels (GLP1R humanized mice; Day 22, 60 min) was 229 mg/dL and the “Percent differences” value (GLP1R humanized mice; Day 22, 60 min) was −4%. For the same molecule, the Blood glucose levels (GLP1R humanized mice; Day 22, 120 min) was 219 mg/dL, the “Percent differences” value (GLP1R humanized mice; Day 22, 120 min) was 5% and the Blood glucose levels (GLP1R humanized mice; Day 46, 0 min) was 180 mg/dL. For the same molecule, the “Percent differences” value (GLP1R humanized mice; Day 46, 0 min) was −2%, the Blood glucose levels (GLP1R humanized mice; Day 46, 15 min) was 237 mg/dL and the “Percent differences” value (GLP1R humanized mice; Day 46, 15 min) was −3%. The Blood glucose levels (GLP1R humanized mice; Day 46, 30 min) was 224 mg/dL, the “Percent differences” value (GLP1R humanized mice; Day 46, 30 min) was −10% and the Blood glucose levels (GLP1R humanized mice; Day 46, 60 min) was 222 mg/dL. For the same molecule, the “Percent differences” value (GLP1R humanized mice; Day 46, 60 min) was −2%, the Blood glucose levels (GLP1R humanized mice; Day 46, 120 min) was 206 mg/dL and the “Percent differences” value (GLP1R humanized mice; Day 46, 120 min) was 11%. The Blood glucose levels (GLP1R humanized mice; Day 67, 0 min) was 199 mg/dL, the “Percent differences” value (GLP1R humanized mice; Day 67, 0 min) was 2% and the Blood glucose levels (GLP1R humanized mice; Day 67, 15 min) was 210* mg/dL. For the same molecule, the “Percent differences” value (GLP1R humanized mice; Day 67, 15 min) was −21%, the Blood glucose levels (GLP1R humanized mice; Day 67, 30 min) was 144**** mg/dL and the “Percent differences” value (GLP1R humanized mice; Day 67, 30 min) was −45*** %. The Blood glucose levels (GLP1R humanized mice; Day 67, 60 min) was 155*** mg/dL, the “Percent differences” value (GLP1R humanized mice; Day 67, 60 min) was −34** % and the Blood glucose levels (GLP1R humanized mice; Day 67, 120 min) was 190 mg/dL. For the same molecule, the “Percent differences” value (GLP1R humanized mice; Day 67, 120 min) was −16%, the hyperglycemia (GLP1R humanized mice; blood glucose at 0 minute vs Group 1, 25 mg/kg s.c., mice) was “does not cause hyperglycemia” and the “duration of correction of GLP1-induced (exendin-4 induced) hypoglycemia” value (GLP1R humanized mice; single dose 25 mg/kg s.c., mice) was no less than 46 days. It also gave a ka ([2]; 25° C.) of 717000 M⁻¹ s⁻¹, a kd ([2]; 25° C.) of 9.97e-05 s⁻¹ and a ka ([2]; 37° C.) of 915000 M⁻¹ s⁻¹. It also gave a kd ([2]; 37° C.) of 0.000544 s⁻¹, a ka ([3]; 25° C.) of 449000 M⁻¹ s⁻¹ and a kd ([3]; 25° C.) of 0.00902 s⁻¹. The ka ([3]; 37° C.) was 649000 M⁻¹ s⁻¹, the kd ([3]; 37° C.) was 0.0485 s⁻¹ and the ka ([4]; 25° C.) was 104000 M⁻¹ s⁻¹. It also gave a kd ([4]; 25° C.) of 7.64e-05 s⁻¹, a ka ([4]; 37° C.) of 129000 M⁻¹ s⁻¹ and a kd ([4]; 37° C.) of 0.000432 s⁻¹.

Marks after values point to notes of the source that are not given here.
